In all, about 81,000 sequences were measured (“one-hybrid fitness for binding NBS DNA”: median about -0.1, highest 2% from about 0.36 on). This is one part of the list.
B1: Caulobacter ParB omega fusion; a variant is named by its letters at X, in order, B8GW30 (parent)
chain: MESVVVGEPGMSEGRRGLGRGLSALLGEVDAAPAQAPGEQLGGSREAPIEILQRNPDQPRRTFREEDLEDLSNSIREKGVLQPILVRPSPDTAGEYQIVAGERAWRAAQRAGLKTVPIMVRELDDLAVLEIGIIENVQRADLNVLEEALSYKVLMEKFERTQENIAQTIGKSXSHVANXMRLLXLPDEVQSYLVSGELTAXHARAIAAAADPVALAKQIIEGGLSVRETEALARKAPNLSAGKSKGGRPPRVKDTDTQALESDLSSVLGLDVSIDHRGSTGTLTITYATLEQLDDLCNRLTRGI

Variants of: B1
Test: one-hybrid fitness for binding NBS DNA (the Noc-binding site; scaled: cognate 1, non-cognate 0); higher = stronger binding
Settings: with NBS DNA site
How it was run: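 Values were rescaled so that cognate is 1 and non-cognate is 0. Each is a fitness, the log change in a variant's read ratio to wild type from Illumina reads of plasmids before and after selection, with three replicate libraries pooled and variants under 10 reads dropped. Selection of the Caulobacter ParB libraries, four specificity codons randomised, used E. coli USO with a HIS3 reporter, site 19 bp from the promoter, on M9-minus-histidine with 0.1 mM IPTG and 5 mM 3-AT for 48 hours at 37°C.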

Variant	one-hybrid fitness for binding NBS DNA
AMDE	≤ 0.2
VRDV	≤ 0.2
CTRC	≤ 0.2
LDLT	≤ 0.2
TENY	≤ 0.2
SQPE	≤ 0.2
SNSI	≤ 0.2
QNPF	≤ 0.2
QESQ	≤ 0.2
SAPT	≤ 0.2
EDKI	≤ 0.2
KNQV	≤ 0.2
KKNM	≤ 0.2
QHSC	≤ 0.2
LHMH	≤ 0.2
WAWC	≤ 0.2
WPHC	≤ 0.2
QKLP	≤ 0.2
GRQV	≤ 0.2
YCLS	≤ 0.2
QESN	≤ 0.2
QVDM	≤ 0.2
GQTQ	≤ 0.2
CNSN	≤ 0.2
STNV	≤ 0.2
KKNS	0.258

Variant	one-hybrid fitness for binding NBS DNA
HINI	≤ 0.2
LAEC	≤ 0.2
NDFT	≤ 0.2
PPGL	≤ 0.2
CRWS	≤ 0.2
LEYW	≤ 0.2
QDYF	≤ 0.2
NGNT	≤ 0.2
CRKM	≤ 0.2
THEM	≤ 0.2
VDGR	≤ 0.2
TAQV	≤ 0.2
HSID	≤ 0.2
KADS	≤ 0.2
ARFR	≤ 0.2
LKQV	≤ 0.2
HADD	≤ 0.2
AQQT	≤ 0.2
LLGV	≤ 0.2
QVFT	0.214
LNWG	≤ 0.2
NDPH	≤ 0.2
NSVK	≤ 0.2
LDVC	≤ 0.2
RQKT	0.63
GCAT	≤ 0.2

Variant	one-hybrid fitness for binding NBS DNA
VTHK	≤ 0.2
QHTW	≤ 0.2
PREE	≤ 0.2
LHVC	≤ 0.2
RNNH	≤ 0.2
CLFG	≤ 0.2
DHDG	≤ 0.2
LTNR	≤ 0.2
AQIC	≤ 0.2
DRVT	≤ 0.2
TPLY	≤ 0.2
CVRN	≤ 0.2
HAKS	≤ 0.2
FMRL	≤ 0.2
EGTL	≤ 0.2
MYAT	≤ 0.2
STKY	≤ 0.2
QFNG	≤ 0.2
SVVP	≤ 0.2
LYVS	≤ 0.2
APWV	≤ 0.2
RAIP	≤ 0.2
CDKG	≤ 0.2
AGDI	≤ 0.2
NSDG	≤ 0.2
WNDT	≤ 0.2

Variant	one-hybrid fitness for binding NBS DNA
PSWR	≤ 0.2
AMAT	≤ 0.2
SPDP	≤ 0.2
MEAS	≤ 0.2
QSNQ	≤ 0.2
KLKL	≤ 0.2
LGCG	≤ 0.2
MVAP	≤ 0.2
VHAR	≤ 0.2
KCNQ	≤ 0.2
GAWG	≤ 0.2
TGTA	≤ 0.2
YRYG	≤ 0.2
PELV	≤ 0.2
RKKQ	0.242
WHST	≤ 0.2
AFDG	≤ 0.2
HVLP	≤ 0.2
QKDM	≤ 0.2
DHMC	≤ 0.2
NMPS	≤ 0.2
IQTC	≤ 0.2
MRPF	≤ 0.2
TKIC	≤ 0.2
RPVS	≤ 0.2
WQGS	≤ 0.2

Variant	one-hybrid fitness for binding NBS DNA
ITMR	≤ 0.2
QYVY	≤ 0.2
TKAM	≤ 0.2
RIMK	≤ 0.2
HAPF	≤ 0.2
MWRH	≤ 0.2
TQLG	≤ 0.2
DVRT	≤ 0.2
PRPI	≤ 0.2
TCYS	≤ 0.2
IAAE	≤ 0.2
PLCI	≤ 0.2
EMDS	≤ 0.2
QKMY	0.224
NLIR	≤ 0.2
AQAC	≤ 0.2
AADN	≤ 0.2
VHYF	≤ 0.2
QTQY	0.285
HRET	≤ 0.2
GYHS	≤ 0.2
LDSN	≤ 0.2
WSQG	≤ 0.2
MTFR	≤ 0.2
ARKK	≤ 0.2
METL	≤ 0.2

Variant	one-hybrid fitness for binding NBS DNA
IVLS	≤ 0.2
QRFR	0.865
QPCS	≤ 0.2
HQYS	≤ 0.2
RCVC	≤ 0.2
WIAN	≤ 0.2
LTYW	≤ 0.2
MQAN	≤ 0.2
KYWR	≤ 0.2
RCPR	≤ 0.2
LEEK	≤ 0.2
SRNV	≤ 0.2
YVPE	≤ 0.2
KSHR	≤ 0.2
LTYC	≤ 0.2
QTVQ	0.534
CCTR	≤ 0.2
QCKC	0.452
EMTK	≤ 0.2
QKAY	≤ 0.2
TPYL	≤ 0.2
RYKW	≤ 0.2
NRHV	≤ 0.2
